# From ChEMBL document CHEMBL4888484, “Replenishing the malaria drug discovery pipeline: Screening and hit evaluation of the MMV Hit Generation Library 1 (HGL1) against asexual blood stage Plasmodium falciparum ,using a nano luciferase reporter read-out” (2022)
# The campaign covered roughly 150,000 compounds. About 540 (0.36%) showed an effect of 50% or more. The list shows a part of the results.
# Test system: Plasmodium falciparum
# Test: Primary screen in NF54 nanoGlo assay, in single point, at 2uM, 72h; a lower Z score goes with more inhibition
# Format: functional, Erythrocyte
# Settings: timepoint 72 hour
SMILES,% Inhibition [%],Z score
O=C(CCn1cnc2ccccc2c1=O)N(CC(F)F)c1ccc(F)cc1,-7,1.08
O=C1CC[C@]2(C(=O)NCc3ccncc3)CCC=C2N1C1CCCC1,-14,1.34
CCN(CC)C(=O)c1cc(C[C@H](C)c2ccccc2)no1,-4,0.6
CCCOC(=O)[C@H]1CC(=O)N(c2cn[nH]c2)C1,30,-3.44
O=C1NCCN1CCS(=O)(=O)Cc1ccn(-c2ccccc2)n1,-7,1.45
Cc1nccc(C(=O)N(c2nc3ccccc3o2)C2CC2)n1,-2,0.32
Cc1ccccc1N1C(=O)CN(S(=O)(=O)c2ccccc2)C[C@@]1(C)C(=O)NC1CCCC1,6,-1.1
COC[C@H](CC(C)C)OC(=O)c1ccn(C(C)C)n1,6,-1.05
Cc1ccc(N2CCCC2)c(C(=O)N2CCc3cnccc32)c1,0,-0.04
Cc1nn(Cc2ccc(F)cc2)c2[nH]nc(NC(=O)[C@H]3CCOC3)c12,-3,0.4
CO[C@@H]1COC[C@H]1n1cc(CNC(=O)N2CC(C)OCC2C)nn1 (some centres undefined),-5,0.97
Cc1noc(C2CCC(N[C@@H](C)c3csnn3)CC2)n1 (some centres undefined),-1,0.27
O=S(=O)(C1CC1)N1CCC[C@H]1Cn1cc(C2CC2)nn1,-9,1.7
CC(C)n1nccc1NC(=O)CCc1ccsc1,-12,2.29
C[C@H]1CCCCN1CCNC(=O)c1c2c(nc3ccccc13)C(=O)N(C1CCCCC1)C2,-9,1.03
COCCn1cnnc1CNC(=O)c1cccc(-c2cn[nH]c2C2CC2)c1,2,-0.28
O=C(NCc1ccnc(-c2cccs2)c1)[C@H]1CCOC1,10,-1.53
CCN(Cc1nnc(C)o1)c1ccc(F)cc1,-9,1.05
O=c1c2cnccc2ncn1Cc1c(F)cccc1F,0,-0.05
CCNC(=O)N1CC[C@H](NS(=O)(=O)c2cccnc2C#N)C1,4,-0.52
CCc1ccc(C2=C[C@@H](c3cccc(OC)c3)n3ncc(C(=O)Nc4ccc(C)cc4)c3N2)cc1,60,-5.98

SMILES,% Inhibition [%],Z score
Cc1ccc(NC(=O)CN2C(=O)NC3(CCS(=O)(=O)CC3)C2=O)cc1C,-5,0.91
CC(C)NC(=O)N(CCN1CCOCC1)CC(=O)N1N=C(c2ccc(F)cc2)C[C@H]1c1ccccc1F,-6,0.88
O=C(CN1C(=O)[C@@H]2CCCCN2C(=O)c2ccccc21)NCC1CCCCC1,-9,1.36
COc1cc(CNS(=O)(=O)c2cc3c(cc2Br)NC(=O)CC3)ccn1,-7,1.41
Cc1cccc2c(N3CCN(Cc4cccnc4)CC3)c(C#N)cnc12,-9,1.2
CC(C)(C)c1cc2c(N3CCC[C@@](O)(C(N)=O)C3)nccn2n1,5,-0.64
Cc1cnc(-n2ncc(C(=O)N3CCCC3)c2C)nc1-c1cccs1,-12,1.56
O=C(NC1CCCCCC1)C1CCN(S(=O)(=O)N2CCCCC2)CC1,1,-0.23
Cc1cc(Cl)ccc1OCC(=O)NCCOc1nc(N(C)C)nc(N2CCOCC2)n1,4,-0.72
CC(C)[C@H]1CN(CC(=O)N2CCOCC2)C[C@@H]1Nc1ncccc1C#N,1,-0.21
COc1ccc(N2CCN(CN3C(=O)c4cc(Cl)c(Cl)cc4C3=O)CC2)cc1,-7,1.45
CO[C@@]1(C)CCCN(C(=O)NCC2(CF)CCOCC2)CC1,1,-0.12
O=C1CCc2cc(F)cc(NC(=O)NCc3n[nH]c4c3CCC4)c2N1,-8,1.03
O=C(NC[C@H]1OC[C@@H](NCc2ccccn2)[C@@H]1O)C1CCCC1,12,-1.41
Cc1nccn1[C@H]1[C@@H]2OC[C@@H](O2)[C@@H](NCc2ccccc2)[C@@H]1O,-7,0.91
CC1(C)NC(=O)N(Cc2cccc3ccccc23)C1=O,-6,0.55
CN(C(=O)c1cccn1C)C1CCCCC1,0,-0.04
O=C(NC[C@H]1CN(c2ccccc2)C(=O)O1)c1ccc(S(=O)(=O)N2CCOCC2)cc1,-8,0.94
CNc1nc(-c2c(C)nn(C)c2C)cc(C(C)(C)C)n1,-8,1.35
COc1ccc(CC(=O)N2CCCN(c3nnc4cccc(C)n34)CC2)cc1,-10,0.96
CC(C)(Oc1ccc2c(c1)CCC2)C(=O)NC[C@]1(O)CCCNCC1,-6,0.79

SMILES,% Inhibition [%],Z score
COc1ccc(CN2CCCN(C(=O)c3ccncc3)[C@H](c3nc(C)n[nH]3)C2)c(OC)c1,-10,1.81
COCCn1ccc(=O)c(OCC(=O)Nc2ccccn2)c1C,-1,0.14
CCC(NC(=O)NC1CCCN(CCOC)C1)c1nccs1 (centres undefined),-2,0.43
Cn1ccnc1[C@@H](NC(=O)c1ccnn1C(F)F)C(C)(C)CO,40,-4.58
c1cnc(N2CCN(c3ccc(-c4nc(C5CC5)no4)cn3)CC2)cn1,-16,2.01
CC(C)c1cc(C(=O)N2CCC(CCC(=O)N(C)Cc3ccccc3)CC2)on1,10,-1.12
CCc1nnc(NC(=O)c2c(C)nn(C)c2C)s1,-10,1.55
COc1ccc(S(=O)(=O)N[C@H](C(=O)N2CC[C@@]3(O)CCCC[C@H]3C2)c2ccccc2)cc1,-11,1.43
Cc1noc(-c2cn(C3CCN(C(=O)c4cccc(Br)c4)CC3)nn2)n1,-6,0.64
O=C(c1cscn1)N1CCC(F)(F)C1,4,-0.5
COc1ccc(C)cc1S(=O)(=O)[C@H]1CS(=O)(=O)C[C@@H]1NCc1ccc2c(c1)OCO2,-1,0.18
CC[C@H]1CCN(C(=O)NC2CC(OC)(OC)C2)C1,-7,0.8
CCNC(=O)c1n[nH]c2c1CN(C(=O)c1cc(F)cc(F)c1)CC2,2,-0.39
CC(=O)N1CC[C@H](CN(C)c2ccc(Br)cc2C#N)C1,0,0
Cc1nc(CN(C)Cc2ccccc2O[C@@H](C)C(=O)O)cs1,5,-0.99
O=C(Nc1ccc(N2CCN(C(=O)c3ccc(Cl)cc3Cl)CC2)nc1)c1ccc(F)cc1F,-16,2.95
CC(C)Oc1cccc2c1c(NC(=O)c1ccon1)nn2Cc1ccccc1,-13,2
N#Cc1cccnc1N[C@H]1CCc2nnc(Cc3ccccc3)n2C1,-15,1.5
COc1ccc(-c2nn(-c3ccccc3C)cc2CNCc2ccc(C)o2)cc1F,6,-1.11
Cc1nn(CCC#N)c(C)c1[C@@H]1C=C[C@@H](NC(=O)NCc2ccccc2)C1,28,-3.17
Cc1ccc(CCC(=O)N2CCC(n3nnc4c3CCCC4)CC2)o1,-22,1.83

SMILES,% Inhibition [%],Z score
CCS(=O)(=O)N1CC(CNC(=O)N2CCCC(C)(C)CC2)C1,-8,0.88
Cc1cc(-c2nc(-c3ccc(C(=O)N(C)C)nc3)no2)sc1C,-10,1.46
Cn1cccc1-c1nc(-c2cnccn2)no1,-19,2.1
O=C1C[C@H](c2nc(-c3cc4ccccc4o3)no2)CN1C1CCCC1,-15,1.92
CC(=O)Nc1c(-c2ccccc2)c(C)nn1-c1ccc(C(=O)Nc2ccc3c(c2)OCCO3)cc1,13,-1.5
CC[C@H](C)NC(=O)CC1CCN(C(=O)c2[nH]c(C)cc2C)CC1,-7,0.58
CC(C)Cc1nsc(N[C@@H](CO)c2cccnc2)n1,4,-0.47
CN(Cc1cccc(O)c1)c1cc(C2CC(N)C2)ncn1 (centres undefined),-15,2.83
CC1CCCCC1NC(=O)c1csc(N)n1 (centres undefined),-9,1.27
Cc1ccc(C(=O)N2CCN(c3nc4ccccc4c4nnc(-c5cccc(C)c5)n34)C[C@@H]2C)cc1,-1,0.08
COc1ccc(CNC(=O)Cn2c(C)cc(C)c(-c3nc(-c4ccc5c(c4)OCO5)no3)c2=O)cc1,7,-1.02
Cc1ccc(CN2CCN(CC#Cc3ccccc3)C[C@@H]2CCO)o1,-5,0.78
Cc1ccc([C@H]2CN(C(=O)COCC(F)(F)C(F)F)C[C@@H]2N(C)C)cc1,7,-1.05
CN1CC[C@H](N2CC3(CCC2=O)CCN(C/C=C/c2ccccc2)CC3)C1,-15,1.66
COc1cccc(CN2CCC3(CC2)c2nc[nH]c2CCN3C(C)=O)c1,0,0.02
c1nc(N2CCOCC2)ncc1CNc1ccc2c(c1)OCCCO2,-1,0.1
Cc1cccc(OC2CN(c3cc(C(C)C)nc(N)n3)C2)c1,-23,2.31
Cc1cc(F)ccc1S(=O)(=O)N1CC[C@H]2[C@H](C1)OCc1cnnn12,-11,1.1
CC(C)C(CNC(=O)N1CCOC(C(=O)O)C1)Cc1ccccc1 (centres undefined),-8,1.51
